Test results taken from PubChem BioAssay AID485294 (National Center for Advancing Translational Sciences (NCATS), 2010).
Among all 370,000 compounds or so, about 150 (0.041%) were called active. Inconclusive results, whose numbers are uncertain, are shown with a selection of clear calls. Calls follow the shape of the dose curve; as a rule, active = well fitted inhibition curve with a large enough effect; inconclusive = small, poorly fitted or top-dose-only effect; inactive = flat fitted curve, though single readings scatter. No potency is given beside an inconclusive call; the fits are too rough.

These molecules were tested against Beta-lactamase (Escherichia coli (strain K12)) (UniProt P00811) (assay: qHTS Inhibitors of AmpC Beta-Lactamase (assay with detergent)). Settings: AmpC hydrolysis of nitrocefin, absorbance 480 nm, 0.01% Triton; activity change, negative = inhibition: at 114 µM (top of the series).
How it was run: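 AmpC (5.3 nM in the dispensed reagent) in 20 mM phosphate pH 7.0 with 0.01% (detergent screen) or 0.0001% Triton X-100 was preincubated with compounds for 15 min at room temperature. Nitrocefin was then added from an 800 uM solution, and hydrolysis was followed at 480 nm.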
Also: nearly all actives have a fitted effect of over 25% in size.
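For activity change, negative = inhibition in this document: 0% = no-compound wells and -100% = no-enzyme wells.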
Potency is read from the fitted curve at half-maximal effect; tags tell the direction and shape of the fitted curve.

Chain of UniProt P00811 (P00811 whole entry, looked up): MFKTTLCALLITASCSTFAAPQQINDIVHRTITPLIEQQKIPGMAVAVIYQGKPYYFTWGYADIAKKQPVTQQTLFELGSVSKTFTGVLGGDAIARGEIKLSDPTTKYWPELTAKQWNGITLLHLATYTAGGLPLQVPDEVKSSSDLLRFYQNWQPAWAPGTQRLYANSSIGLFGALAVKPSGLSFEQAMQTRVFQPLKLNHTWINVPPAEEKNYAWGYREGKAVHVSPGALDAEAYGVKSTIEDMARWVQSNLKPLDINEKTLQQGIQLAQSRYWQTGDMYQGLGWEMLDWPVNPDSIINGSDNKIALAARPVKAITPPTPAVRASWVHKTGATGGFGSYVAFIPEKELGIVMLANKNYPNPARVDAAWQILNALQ

SMILES | activity change, negative = inhibition | Potency
Cc1oc(-c2ccc(Cl)cc2)nc1CS(=O)CC(=O)NCCCN(C)C1CCCCC1 (stereo not given) | inactive: 1.36% | 
CCCCCCC(=O)Nc1ccc(C(=O)N/N=C/c2cccnc2)cc1 |  | inconclusive [inhibitor, single point]
NC(=O)[C@@H]1CC2(CC(c3cccc(NC(=O)[C@H]4CCC(=O)N4)c3)=NO2)CN1C(=O)c1ccc(Cl)cc1 (stereo not given in full) | inactive: -2.4% | 
CCOC(=O)Cc1csc(NS(=O)(=O)Cc2ccccc2)n1 |  | inconclusive [inhibitor, full curve, poor fit]
Cc1ccc(-c2c(C(=O)N/N=C/c3ccc(OC(C)C)cc3)nnn2-c2nonc2N)cc1 | inactive: 0.526% | 
COc1cc(OC)c(OC)cc1/C=N/N(C)c1ccccc1 | inactive: -9.57% | 
Cn1cc(-c2ccccc2C(N)=O)c(=O)c2cc(Cl)ccc21 |  | inconclusive [inhibitor, full curve, poor fit]
O=C(COC(=O)CN1C(=O)C2CCCCC2C1=O)NNC(=O)c1ccc(Cl)cc1 (stereo not given) |  | inconclusive [inhibitor, full curve, poor fit]
CCC(C)(C)n1nnnc1C(c1cccc(C#N)c1)N1CCN(c2cccc(C)c2C)CC1 (stereo not given) |  | inconclusive [inhibitor, partial curve, poor fit]
Cc1cccc2cc3c(NC(=O)C(C)(C)C)nn(CC(C)C)c3nc12 | inactive: 4.33% | 
COc1ccc(-c2nc3ccccc3o2)cc1NC(=O)COc1ccc(C(C)(C)C)cc1 | inactive: 2.14% | 
CCc1ccc(Nc2cnn(-c3nc4ccccc4s3)c(=O)c2Cl)cc1 |  | inconclusive [inhibitor, full curve, poor fit]
CCN(C(=O)COC(=O)[C@H](C)N=C1NS(=O)(=O)c2ccccc21)C1CCS(=O)(=O)C1 (stereo not given in full) | inactive: -13.9% | 
Cc1ccccc1OC(=O)CSc1nnc(-c2cccs2)o1 | inactive: 7.31% | 
CCN(C#N)c1nc(N(C)C)nc(N(C)C)n1 | inactive: -2.64% | 
CC(C)(C)c1nc(CN2CCOCC2)cc(CN2CCOCC2)c1O |  | inconclusive [inhibitor, single point]
CCN=C1SC(CC(=O)Nc2ccccc2OCC)C(=O)N1CC (stereo not given) |  | inconclusive [inhibitor, partial curve, poor fit]
Cc1ccccc1OCC(O)CN(CCO)Cc1ccccc1 (stereo not given) |  | inconclusive [inhibitor, partial curve, poor fit]
COC(=O)c1sc2ccccc2c1N |  | inconclusive [inhibitor, full curve, poor fit]
CCN1C(=O)CC(C(=O)O)SC1=Nc1ccc(OC)cc1 (stereo not given) |  | inconclusive [inhibitor, partial curve, poor fit]
O=C(NCCc1ccccc1)c1ccc(CSc2nc3ccncc3n2Cc2ccc(F)cc2)cc1 | inactive: 13.8% | 
COc1cccc(CNC(=O)N2CCN(c3ccccc3)CC2)c1 |  | inconclusive [inhibitor, full curve, poor fit]
Cc1ccc(N=C2NC(=O)CS2)cc1 |  | inconclusive [inhibitor, full curve, poor fit]

SMILES | activity change, negative = inhibition | Potency
CCOC(=O)N/N=C/c1cc(OC)c(O)c(OC)c1 |  | inconclusive [inhibitor, single point]
CN(Cc1ccccc1)C(=O)c1ncn(C)c1C(=O)N(C)Cc1ccccc1 | inactive: 0.76% | 
CCOc1cc(CN2CCC(n3nccc3NC(=O)C3CC3)CC2)ccc1O |  | inconclusive [inhibitor, full curve, poor fit]
CN(CC(=O)Nc1ccc(Cl)c(C(F)(F)F)c1)C(=O)CCCNC(=O)c1ccc(Cl)cc1 |  | inconclusive [inhibitor, partial curve, poor fit]
COc1ccc(CCNC2CC(C)N(C)CC2C)cc1OC (stereo not given) |  | inconclusive [inhibitor, full curve, poor fit]
CN(C)C=Nc1ncc2c3ccccc3n(Cc3ccccc3)c2c1C#N | inactive: -5.84% | 
CCOc1ccc(C(=O)Nc2cccc(OCc3cc(=O)n4cc(C)sc4n3)c2)cc1 | inactive: 7.5% | 
CCOc1ccc(CCNC(=O)COC(=O)c2ccc(S(=O)(=O)N3CCCC3)cc2)cc1OCC | inactive: -3.67% | 
O=C(NCc1ccco1)C1CC(O)CN1C(=O)Nc1ccccc1 (stereo not given) |  | inconclusive [inhibitor, full curve]
O=c1cc(C(F)(F)F)[nH]c2c(OC(F)(F)F)cccc12 | inactive: -6.36% | 
Cc1ccc(C)c(NC(=O)CN(C)C(=O)c2ccncc2)c1 |  | inconclusive [inhibitor, full curve, poor fit]
CCN(Cc1ccccc1)C(=O)CN1C(=O)COc2ccc(S(=O)(=O)NC3CCCC3)cc21 |  | inactive
COc1ccc(-c2nnc(Nc3ccc(S(=O)(=O)Nc4nccs4)cc3)c3ccccc23)cc1 |  | inconclusive [inhibitor, single point]
O=C1/C(=C/c2cccnc2)SC(=S)N1CC1CCCO1 (stereo not given) |  | inconclusive [inhibitor, partial curve]
O=C(Cc1nc2ccccc2[nH]1)c1ccc([N+](=O)[O-])cc1 |  | inconclusive [inhibitor, single point]
COC(=O)c1ccc2c(c1)NC(=O)C(N1CCCC1)S2 (stereo not given) |  | inconclusive [inhibitor, single point]
CC(=O)Nc1c2c(nn1-c1ccc(Cl)cc1)CSC2 |  | inconclusive [inhibitor, full curve]
COc1ccccc1C(=O)NC(C)c1nc2ccccc2[nH]1 (stereo not given) |  | inconclusive [inhibitor, single point]
CN(C)c1nc(Nc2ccccc2)nc(Oc2ccc(=O)[nH]n2)n1 |  | inconclusive [inhibitor, single point]
Cc1nc2ccccn2c1P(=Nc1ccccc1)(N(C)C)N(C)C |  | inconclusive [inhibitor, full curve, poor fit]
CCOc1ccc(NC(=O)c2cc3ccccc3cc2OC)cc1 |  | inconclusive [inhibitor, single point]
Cc1oc(CSCCSCc2cc(C(=O)O)c(C)o2)cc1C(=O)O |  | inconclusive [inhibitor, full curve, poor fit]
